# Laboratory results published in US20240101686A1 (SIMCERE ZAIMING PHARMACEUTICAL, published 2024).
# B1: S008-NB148-52 VHH-Fc antibody (Fc fusion)
# chain: EVQLVESGGGLVQAGGSLRLSCAASGFRIINDRMAWYRQAPGKQREAVASIDYAGSTTYAEFVKGRFTISRDNTKNMVTLQMNNLEPEDTAVYYCNTAPIARFRGQGTQVTVSS[human IgG1 Fc with changes not shown]
# notes: VHH fused to human IgG1 hinge and Fc
# B2: S008-NB148-70 VHH-Fc antibody (Fc fusion)
# chain: QVQLVESGGGLVQAGGSLRLSCAASEGTLSSEAMGWHRLAPGKQRESVGFISSGGSTNYRDSVKGRFTISRDNAKNTVYLQMNSLKPEDTGVYFCRIPNSVGPWGQGTQVTVSS[human IgG1 Fc with changes not shown]
# notes: as for B1
# B3: S008-NB149-1 VHH-Fc antibody (Fc fusion)
# chain: EVQVVESGGGTVQAGGSLRLSCAASARTFANAHMAWFRQAPGKEREFLAAITWSGGITDYANSVKGRFTISRDNAENAMYLQMNSLKPEDTAIYICAVDTTSAYDQLWSRQSEYEYWGQGTQVTVSS[human IgG1 Fc with changes not shown]
# notes: as for B1
# B4: S008-NB149-2 VHH-Fc antibody (Fc fusion)
# chain: QVQLVESGGGLVQPGGSLRLSCAASGFSLDAYAIGWFRQAPGMGREGVSCISSAGNTDYADSVKGRFAISRDNAKNTVYLQMNSLKPEDSGVYYCARTSEGVYRGRLACALYESAADFRSGGQGTRVTVSS[human IgG1 Fc with changes not shown]
# notes: as for B1
# B5: S008-NB149-20 VHH-Fc antibody (Fc fusion)
# chain: EVQVVESGGGLVQPGGSLRLSCAASGSGFTINAMTWYRRAPGKERELVAIITNGGITNYADSVKGRFTISRDNAKSTVYLQMDGLEPEDTAVYYCNIVPPVYWGQGTQVTVSS[human IgG1 Fc with changes not shown]
# notes: as for B1
# B6: S008-NB149-60 VHH-Fc antibody (Fc fusion)
# chain: QLQLVESGGGLVQPGGSLRLSCAASRSISSINTMTWYRYQGPGKERELVALITLGGTTNYADSVKGRFTISRDDAKNTLYLEMNSLKPEDTAVYYCNAVPPFRWGQGTQVTVSS[human IgG1 Fc with changes not shown]
# notes: VHH fused to human IgG1 hinge and Fc; also called S008-NB149-0
# B7: S008-NB148-10 (Fc fusion)
# chain: QVQLVESGGGLVQAGGSLRLSCAAFISTFGRTDMTWYRQRSGNEREFVARISSGGSTIYADSAKGRFTISRDNVKNTVYLQMNSLTPEDTAVYYCNTVPPRGSWSQGTQVTVSS[human IgG1 Fc with changes not shown]
# notes: Tested as VHH-Fc (vector BI3.4-huIgG1, HEK293E); also called S00N-NB1 48-10
# B8: S008-NB148-52 (Fc fusion)
# chain: EVQLVESGGGLVQAGGSLRLSCAASGFRIINDRMAWYRQAPGKQREAVASIDYAGSTTYAEFVKGRFTISRDNTKNMVTLQMNNLEPEDTAVYYCNTAPIARFRGQGTQVTVSS[human IgG1 Fc with changes not shown]
# notes: Tested as VHH-Fc; order VHH-hinge-Fc inferred
# B9: S008-NB148-70 (Fc fusion)
# chain: QVQLVESGGGLVQAGGSLRLSCAASEGTLSSEAMGWHRLAPGKQRESVGFISSGGSTNYRDSVKGRFTISRDNAKNTVYLQMNSLKPEDTGVYFCRIPNSVGPWGQGTQVTVSS[human IgG1 Fc with changes not shown]
# notes: as for B8
# B10: S008-NB149-1 (Fc fusion)
# chain: EVQVVESGGGTVQAGGSLRLSCAASARTFANAHMAWFRQAPGKEREFLAAITWSGGITDYANSVKGRFTISRDNAENAMYLQMNSLKPEDTAIYICAVDTTSAYDQLWSRQSEYEYWGQGTQVTVSS[human IgG1 Fc with changes not shown]
# notes: as for B8
# B11: S008-NB149-2 (Fc fusion)
# chain: QVQLVESGGGLVQPGGSLRLSCAASGFSLDAYAIGWFRQAPGMGREGVSCISSAGNTDYADSVKGRFAISRDNAKNTVYLQMNSLKPEDSGVYYCARTSEGVYRGRLACALYESAADFRSGGQGTRVTVSS[human IgG1 Fc with changes not shown]
# notes: as for B8
# Tests used:
# [1] = biological target: T1, cynomolgus monkey EGFR on HEK293T-monkey EGFR cells (cynomolgus monkey, UniProt P55245 (rhesus entry)); assay: FACS, HEK293T-monkey EGFR cells (specificity assay)
# [2] = biological target: T2, monkey EGFR protein (commercial, SB, catalog number 90285-C08H) (monkey); assay: ELISA, coated monkey EGFR protein, antibody 100 nM
# T2 construct: Bought protein used to coat ELISA plates
# [3] = biological target: T2, monkey EGFR protein (commercial, SB, …); assay: ELISA, coated monkey EGFR protein, antibody 0.01 nM
# [4] = biological target: T2, monkey EGFR protein (commercial, SB, …); assay: ELISA, coated monkey EGFR protein, antibody 10 nM
# [5] = biological target: T2, monkey EGFR protein (commercial, SB, …); assay: ELISA, coated monkey EGFR protein, antibody 1 nM
# [6] = biological target: T2, monkey EGFR protein (commercial, SB, …); assay: ELISA, coated monkey EGFR protein, antibody 0.0001 nM
# [7] = biological target: T1, cynomolgus monkey EGFR on …; assay: FACS, HEK293T-monkey EGFR cells
# [8] = biological target: T2, monkey EGFR protein (commercial, SB, …); assay: ELISA, coated monkey EGFR protein, antibody 0 nM (blank)
# [9] = biological target: T2, monkey EGFR protein (commercial, SB, …); assay: ELISA, coated monkey EGFR protein, antibody 0.1 nM
# [10] = biological target: T2, monkey EGFR protein (commercial, SB, …); assay: ELISA, coated monkey EGFR protein, antibody 0.001 nM
# Her2 protein [11] = biological target: T3, Her2 protein (human, UniProt P04626 part only)
# T3 construct: Bought protein; also called human Her2 protein
# Her2 protein [12] = biological target: T3, Her2 protein; remark: listed apart in the source
# Her2 protein [13] = biological target: T3, Her2 protein; remark: listed apart in the source
# Her2 protein [14] = biological target: T3, Her2 protein; remark: listed apart in the source
# Her2 protein [15] = biological target: T3, Her2 protein; remark: listed apart in the source
# Her2 protein [16] = biological target: T3, Her2 protein; remark: listed apart in the source
# Her2 protein [17] = biological target: T3, Her2 protein; remark: listed apart in the source
# Her2 protein [18] = biological target: T3, Her2 protein; remark: listed apart in the source
# monkey EGFR protein = biological target: T4, monkey EGFR protein (cynomolgus monkey, UniProt P55245 part only (rhesus entry))
# T4 construct: Bought protein (SB 90285-C08H); also called cynomolgus monkey EGFR
Binder,Max_MFI [1],OD450 [2],OD450 [3],OD450 [4],OD450 [5],OD450 [6],EC50 [7] [nM],Max MFI [7],OD450 [8],OD450 [9],OD450 [10],OD450 (Her2 protein [11]),OD450 (Her2 protein [12]),OD450 (Her2 protein [13]),OD450 (Her2 protein [14]),OD450 (Her2 protein [15]),OD450 (Her2 protein [16]),OD450 (Her2 protein [17]),OD450 (Her2 protein [18]),Kd (monkey EGFR protein) [nM],other results
B1,6620,2.75,0.81,2.49,2.27,0.07,123,9570,0.06,2.01,0.17,–,–,–,–,–,–,–,–,–,–
B2,8500,2.74,0.67,2.61,2.5,0.06,2.13,12000,0.06,2.09,0.14,–,–,–,–,–,–,–,–,–,–
B3,5300,1.69,0.35,1.81,1.7,0.04,1.1,16500,0.04,1.29,0.1,–,–,–,–,–,–,–,–,–,–
B4,1330,2.67,0.43,2.3,2.15,0.06,174,1370,0.08,1.63,0.1,–,–,–,–,–,–,–,–,–,–
B5,9960,2.43,0.97,2.26,2.27,0.08,27.9,17000,0.06,1.93,0.22,–,–,–,–,–,–,–,–,–,–
B6,8310,2.47,0.73,2.35,2.2,0.06,2.68,14100,0.06,1.82,0.15,–,–,–,–,–,–,–,–,–,–
B7,–,–,–,–,–,–,–,–,–,–,–,0.08,0.11,0.1,0.13,0.25,0.15,0.13,0.09,10.6,koff (monkey EGFR protein): 0.000639 s⁻¹; kon (monkey EGFR protein): 60400 M⁻¹ s⁻¹
B8,–,–,–,–,–,–,–,–,–,–,–,0.1,0.12,0.21,0.28,0.17,0.11,0.12,0.15,6.63,koff (monkey EGFR protein): 0.000395 s⁻¹; kon (monkey EGFR protein): 59600 M⁻¹ s⁻¹
B9,–,–,–,–,–,–,–,–,–,–,–,0.1,0.15,0.16,0.14,0.16,0.1,0.08,0.09,2.11,koff (monkey EGFR protein): 0.000154 s⁻¹; kon (monkey EGFR protein): 73000 M⁻¹ s⁻¹
B10,–,–,–,–,–,–,–,–,–,–,–,0.13,0.07,0.23,0.13,0.15,0.16,0.09,0.09,5.46,koff (monkey EGFR protein): 0.000649 s⁻¹; kon (monkey EGFR protein): 119000 M⁻¹ s⁻¹
B11,–,–,–,–,–,–,–,–,–,–,–,0.14,0.14,0.18,0.12,0.21,0.22,0.08,0.19,7.95,koff (monkey EGFR protein): 0.000482 s⁻¹; kon (monkey EGFR protein): 60600 M⁻¹ s⁻¹

# Read-outs that look alike come from different tables or passages of the source.
